Measurements as given in the RNAGym collection of RNA variant scans (doi:10.7554/elife.90254).
Read counts are not given, so values of variants with three or more changes are uncertain.

B1: LINE1-mini (parent)
chain: GGCAGAGCUCAACACAGCGUGGCAAAGUGGCUGUGGCUAGACUGCC

Variants of: B1
Assay: self-cleavage, relative activity (ratio to wild type); higher = more cleavage; in vitro, sequencing; the parent is a self-cleaving ribozyme

Variant | self-cleavage
GGCCGAGCUGAACACAGCGUGGAAAACCGACUGUGGCUAGACUGCC [A4C C10G C23A G27C U28C G30A] | 0.01
GGCCGAGCUCAACAAAGCGUGGCAAAGUGGCUGUAGCUAGACUGAC [A4C C15A G35A C45A] | 0.03
GGCCGAGCUCAACACAGCGUGGGAAUGUGGCUGUGGCUAGACUGCC [A4C C23G A26U] | 0.18
GGCCGAGCUCAACACAGAGUGGCACAGUGGCUGUGUCUAGAGUGCC [A4C C18A A25C G36U C42G] | 0.13
GGCCGAGCUAAACACAGCGUGGCAAAGUGGCUUUGGCAAGACUGCC [A4C C10A G33U U38A] | 0.05
GGCCGAGCUUAACACAGCGUGGCAAAGUGGCUUUGGCUAGACUGCC [A4C C10U G33U] | 0.02
GGCCAAGCUAAACACAGCGUGGCAAUGUGGCUGUGGCUAGACUGCC [A4C G5A C10A A26U] | 0
GGCCGAGCUAAACACAGCGUGGCAACUUGUAUGUGGCUAGACUGCC [A4C C10A A26C G27U G30U C31A] | 0.25
GGCCGAGUUCAACACAGCGUAGCAAAGUGGCUGAGGCUAGAGUGCC [A4C C8U G21A U34A C42G] | 0.23
GGCCGAGCUCAACACAGCGUGGAAAGGUGGCUGUGUAUAGACUGCC [A4C C23A A26G G36U C37A] | 0.56
GGCCGAGCUCAACACAGGGUGAGAAAGUGGCUGUGGCUAGACUGCC [A4C C18G G22A C23G] | 0.02
GGCCGAGCUAAACCCAGCGUGGCAAGGUGGUUGUGGCUAGACUGCC [A4C C10A A14C A26G C31U] | 0.01
GGCCGAGCUCAACACAGCGUGGGAAAGUGGCUGUGGUUAGACUGCC [A4C C23G C37U] | 0.02
GGCCGAGCUCAACAAAGCGUGGCAAUGUGGCUGUGGCUAGACUGCC [A4C C15A A26U] | 0.06
GGCCGAGCUGAACACUGCGUUGCAAAGUGGCUGUGGCUAGAAUGCC [A4C C10G A16U G21U C42A] | 0.02
GGCCGAGCUAAACACAGAGUGGCAAAGAGGCUGUGGCUAGACUGCC [A4C C10A C18A U28A] | 0.01
GGCCGAGCUCAAAACACGGCGGCAAAGAGGCUGUGGCCAGACUGCC [A4C C13A G17C C18G U20C U28A U38C] | 0.08
GGCCGAGCUAAACACAUCGUGGCAAAGUGGCUGUGGCUAGCUUGCU [A4C C10A G17U A41C C42U C46U] | 0.01
GGCCGAGCUCAAGACAGCGUGUCAAAGUGGCUCUGGCUAGACUGCC [A4C C13G G22U G33C] | 0.02

Variant | self-cleavage
GGCCGAGCUCAACACAGCGUGGCAAAGUGGAUGUGGCUAGACUUCC [A4C C31A G44U] | 0.08
GGCCGAGCUCAAUACAGCGUGGGAAAGUGGCUGUGGCUAGACUACC [A4C C13U C23G G44A] | 0.5
GGCCGAGCUCAAUGCAGCGUGGCAAAGUGGCUGUGGCUAGCCUGCC [A4C C13U A14G A41C] | 0.02
GGCCGAGCUUAACACAGCGUGUCAAAGUGGCUGUGGCUAGGCAGCC [A4C C10U G22U A41G U43A] | 0.03
GGCCGAGUUCAACACAGCGUGGCAAAGUGGAUGUGGCUAGACUGCC [A4C C8U C31A] | 0.42
GGCCGAGCUCAACAAAGCGUGGCAGAGUGGCUGUUGCUAGACUGAC [A4C C15A A25G G35U C45A] | 0.07
GGCCGAGCUCAACACAGUGUGGCAAAGUGGCUGUGGCUAGACUACC [A4C C18U G44A] | 0.09
GGCCGAGCUCAACAUGGCGUGGCAAAGUGGCUGUGGCUAGCCUGCC [A4C C15U A16G A41C] | 0.03
GGCCGAGCUCAACACAGUGUGGGAAAGUGGCAGUGGUUAGACUGCC [A4C C18U C23G U32A C37U] | 0.09
GGCCGAGCUCAAUACAGGGUGGCAAAGUGGCGGAGGCUAGACUGCC [A4C C13U C18G U32G U34A] | 0.36
GGCCCAACUCAACACAGCGUGGCAAAGUGGCUGUGGCUAGACUGCC [A4C G5C G7A] | 0.25
GGCCCAGCUCAACACAUCGUGGCAAAGUGGCAGUGGCUAGACUGCC [A4C G5C G17U U32A] | 0.1
GGCCGAGCUCAAAACAGCGUGCCAAAGUGGCUGUGGCUAGACUGCC [A4C C13A G22C] | 0.02
GGCCAAGCUCAACGCAGCAUUGUAGAGUGGCUGUGGCUGGACUGCC [A4C G5A A14G G19A G21U C23U A25G A39G] | 0.03
GGCCGAGCUCAAGACAGCGAGGCAAAGUGGCUGUGGCUAGACUGCC [A4C C13G U20A] | 0.02
GGCCGAGCUCAAAACAGUGUGGCAUAGUGACUGUGGCUAGACUGCC [A4C C13A C18U A25U G30A] | 0.09
GGCCGAGCUAAAUACAGCGUGCCAAAGUGGCUGUAGCUAGACUGCC [A4C C10A C13U G22C G35A] | 0.02
GGCCGAGCUCAAGGCAGCGUGGCAAAAUGGCUGUGGCUAGACUGCC [A4C C13G A14G G27A] | 0.16
GGCCGAGCUCAAGACAGCGUGGCAUAGUGGCUGUAGUUAGACUGCC [A4C C13G A25U G35A C37U] | 0.06

Variant | self-cleavage
GGCCGAGCUCAACACAGGGUGGCAAAGUGGCUGUGGCUAGAGCGCC [A4C C18G C42G U43C] | 0.01
GGCCGAGCUGAAUACAGCGUGGCACAGUGGCUUUGGCUAGACUGCC [A4C C10G C13U A25C G33U] | 0.01
GGCCAAACUCAUCACAGCAUGGCAAAGUGGCGGUGGCUGGACUGCC [A4C G5A G7A A12U G19A U32G A39G] | 0.24
GGCCGAGCUCAACACAGUGUGGCAAAGUGUCUGUGGCUAGACUGCC [A4C C18U G30U] | 0.23
GGCCGAGCUAAACACAGCGUGCCAAAGUGGCUGUGACUCGACUGCC [A4C C10A G22C G36A A39C] | 0.02
GGCCGAGCUCAACACAGCGUGGAAAAGUGGCUGUGUCUAGACUGCC [A4C C23A G36U] | 0.06
GGCCGAGCUCAACACAGAAUGGCAAAGUGGGUGUGGCUAGACUGCC [A4C C18A G19A C31G] | 0.03
GGCCGAGCUCAAAACAGCGUGGCAAAUUGGUUGUGGCUAGAGUGCC [A4C C13A G27U C31U C42G] | 0.04
GGCCGAGUUCAACACAGUGUGGCAAAGUGGCUGUGGCUAGACAGCC [A4C C8U C18U U43A] | 0.07
GGCCGAGCUAAACACAGCGUGGCCAAAUGGCUGUGGCUAGACUGCC [A4C C10A A24C G27A] | 0.02
GGCCGAGCUCAACACAGAAUGGCAAAGUGGCUGUGGCUAGACUCCC [A4C C18A G19A G44C] | 0.02
GGCCGAGCUCAACACAGCGUGGGAGAGGAGCGGUGGCUAGACGGUC [A4C C23G A25G U28G G29A U32G U43G C45U] | 0
GGCCGAGUUCAACACAGCGUGGUAAACUGGCCGUGGCUGGACUGCC [A4C C8U C23U G27C U32C A39G] | 0.07
GGCCGAGCUCAACACAGCGUGGCAAAGUGGGUGUGGCUUGACUGCC [A4C C31G A39U] | 0.07
GGCCGAGUUCAACACAGCGUGGCAAAGUGACUGUGGCUAGACUGCC [A4C C8U G30A] | 0.28
GGCCGAGCUCAACACAGCGUGGCAAAGUGGCUGUGGAUAGACUGCU [A4C C37A C46U] | 0.19
GGCCGAGCUCAAAACAGCGUGGCAAAGUCGCUGUGGCUAGACUGCA [A4C C13A G29C C46A] | 0.04
GGCCGAGCUGAACACAGCGUGGCAAAGUGGCUGUGGCAAGACUGCC [A4C C10G U38A] | 0
